Data: article PMC4336329 (PLoS ONE, 2015)
Screen size: about 310,000 compounds; about 14,000 (4.5%) showed an effect of 50% or more. The effect is printed as a negative number. The list shows a part of the results.

Molecular target: human ether-à-go-go-related gene (hERG) potassium channel (human, UniProt Q12809)
Experiment: primary screen, population patch clamp on CHO cells stably expressing hERG
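Also: peak tail current of the secondary pulse compared with the same well before compound.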

human ether-à-go-go-related gene (hERG) potassium channel, sequence (Q12809 whole entry, looked up): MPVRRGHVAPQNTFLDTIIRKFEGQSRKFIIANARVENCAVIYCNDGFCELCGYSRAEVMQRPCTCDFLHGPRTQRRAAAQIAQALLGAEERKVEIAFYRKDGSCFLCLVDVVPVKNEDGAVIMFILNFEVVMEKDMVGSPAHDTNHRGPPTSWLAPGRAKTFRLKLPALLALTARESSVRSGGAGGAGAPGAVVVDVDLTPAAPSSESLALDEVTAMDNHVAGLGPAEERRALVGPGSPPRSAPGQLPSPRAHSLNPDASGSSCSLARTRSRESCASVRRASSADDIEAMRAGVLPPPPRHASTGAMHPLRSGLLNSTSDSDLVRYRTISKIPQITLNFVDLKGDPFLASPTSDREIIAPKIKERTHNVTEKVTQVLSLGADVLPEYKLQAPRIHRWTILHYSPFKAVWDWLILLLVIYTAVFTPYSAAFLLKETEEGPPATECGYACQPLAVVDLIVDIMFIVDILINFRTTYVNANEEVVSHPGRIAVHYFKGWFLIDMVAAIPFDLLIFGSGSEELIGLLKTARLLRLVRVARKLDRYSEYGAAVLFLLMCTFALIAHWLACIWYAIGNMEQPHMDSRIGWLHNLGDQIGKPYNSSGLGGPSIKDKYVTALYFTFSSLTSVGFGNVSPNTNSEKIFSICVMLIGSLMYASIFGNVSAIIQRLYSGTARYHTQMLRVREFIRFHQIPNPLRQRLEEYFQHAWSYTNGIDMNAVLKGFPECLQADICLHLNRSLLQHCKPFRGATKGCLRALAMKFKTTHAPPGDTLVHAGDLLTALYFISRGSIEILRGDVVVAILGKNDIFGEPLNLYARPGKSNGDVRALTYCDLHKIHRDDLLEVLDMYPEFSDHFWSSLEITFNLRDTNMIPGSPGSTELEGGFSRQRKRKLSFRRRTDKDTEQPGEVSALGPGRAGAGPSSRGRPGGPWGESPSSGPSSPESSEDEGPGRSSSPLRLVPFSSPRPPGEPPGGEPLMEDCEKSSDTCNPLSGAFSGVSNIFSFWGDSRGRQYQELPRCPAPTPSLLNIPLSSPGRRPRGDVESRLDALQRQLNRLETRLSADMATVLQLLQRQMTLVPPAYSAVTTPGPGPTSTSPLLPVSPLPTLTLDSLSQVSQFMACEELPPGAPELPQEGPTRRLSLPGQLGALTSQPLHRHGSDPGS

SMILES | hERG current change (%, negative = inhibition) at 10uM
Cc1ccccc1N1CCN(C2CCCN(C(=O)c3cc(C(C)C)[nH]n3)C2)CC1 (stereo not shown) | -61.2%
COc1ccc(NC(=O)CO/N=C2/CCCc3nonc32)c(OC)c1 | 11.1%
CC(c1n[nH]c(=S)n1-c1ccccc1)N1CCCCC1 (stereo not shown) | 35.4%
O=C(Nc1ccc(-c2nc3ccccc3[nH]2)cc1)C1CCCO1 (stereo not shown) | -2.57%
COC(=O)C1=C(c2ccc(F)cc2OCc2ccccc2)C[C@@H]2CC[C@H]1N2C(=O)NCCOc1ccc(OC)cc1 | 7.46%
C=C1CC2C(=O)N(Cc3ccccc3)C(C(=O)OCC)(C(=O)OCC)C1N2C(=O)OC(C)(C)C (stereo not shown) | -7.05%
COCCCNCCCOc1ccc(C(C)(C)c2ccccc2)cc1.O=C(O)C(=O)O | -19.9%
O=C(NCCCN1CCOCC1)c1ccc2c(c1)N(Cc1cccc(Cl)c1)C(=O)c1ccccc1S2=O (stereo not shown) | -25.9%
CC(=O)OCC1OC(n2ccc3ccccc32)C(OC(C)=O)C(OC(C)=O)C1OC(C)=O (stereo not shown) | 0.0107%
Cc1cc(C)c(N)c(C(=O)O)c1 | 7.17%
CC1CCCCC1NCC(=O)Nc1ccccc1-c1ccccc1.O=C(O)C(=O)O (stereo not shown) | -13.4%
COc1ccc(/C=C(/NC(=O)c2ccccc2OC)C(=O)Nc2ccc(C(=O)O)cc2)cc1 | 7.22%
Cc1ccc(NC(=O)CN(c2ccccc2F)S(C)(=O)=O)cc1 | 5.51%
CSc1ccc(S(=O)(=O)NC(C)c2ccccc2)cc1 (stereo not shown) | 8.51%
CCC(C)NC(=O)Nc1ccccc1F (stereo not shown) | -24.5%
COc1cc(OC)c(NS(=O)(=O)c2cn(C)cn2)cc1Cl | 5.67%
O=C(COC(=O)c1cc(Br)ccc1O)NC1CCCCCC1 | -20%
CCc1nc(SCC(=O)N2c3ccccc3CC2C)c2c(C)c(C)sc2n1 (stereo not shown) | -5.78%
CCOC(=O)c1ccc2c(c1)n(CC)c(/C=C/N(C)c1ccccc1)[n+]2CC.[I-] | -74.3%
Cc1cccc2sc(N(CCCN3CCOCC3)C(=O)CS(=O)(=O)c3ccc(F)cc3)nc12.Cl | -16.9%
Cc1c(C(=O)NN)nn(-c2ccc(F)cc2)c(=O)c1C#N | 15.4%
COc1ccc2c(c1)C(=NNc1ccc(C(=O)O)cc1)c1cc(OC)ccc1-2 | -19.6%
Cc1ccc(-c2[nH]ncc2/C=N/n2c(COc3ccccc3)nc3ccccc3c2=O)cc1 | -20.2%
O=C(c1ccc(S(=O)(=O)N2CCC(c3nc4ccccc4s3)CC2)cc1)N1CCOCC1 | 3.49%
NC(=O)c1c(NC(=O)c2cnccn2)sc2c1CCCC2 | 16.6%
CC(=O)c1cccc(NC(=O)CCNS(=O)(=O)c2cccc(C(C)=O)c2)c1 | 1.13%
COc1ccc(-c2csc(-c3ccc(O)cc3)n2)cc1 | 7%
COC(=O)c1ccc(NC(=O)COc2ccccc2OC)cc1 | 15.6%

SMILES | hERG current change (%, negative = inhibition) at 10uM
Cc1ccc(S(=O)(=O)N2CCCCC2)cc1NC(=O)[C@@H]1CCCN1C(=O)c1cccs1 | -13.3%
CCOCC(=O)OCC(=O)NC12CC3CC(CC(C3)C1)C2 | -3.4%
COC(=O)C(N)Cc1ccc(Cl)cc1.Cl (stereo not shown) | -2.67%
CCN(CC)CCN1C(=O)C2C(C(=O)Nc3ccc(C(C)C)cc3)C3C=CC2(O3)C1C(=O)NC1CCCCC1 (stereo not shown) | -12%
ClCCOCCCl | 11.4%
Cc1ccccc1-c1noc(-c2ccccc2C(=O)NCc2ccco2)n1 | -3.37%
COc1ccccc1C(=O)NNC(=O)c1cccc(C)c1 | 20.7%
Cc1ccc(NC(=O)CSc2nnc(CCCCCNC(=O)OC(C)(C)C)o2)c(C)c1 | -34.2%
NC(=O)c1sc2nc(-c3ccccc3)c3c(c2c1N)CCCC3 | 10.2%
COc1ccc(CN=C(Nc2ccccc2)SC2CC(=O)N(C)C2=O)cc1 (stereo not shown) | 4.51%
CCOc1ccc(Nc2nc(-c3cccnc3)cs2)cc1 | 19.6%
CC(=O)N1c2ccc(S(=O)(=O)N3CCC(C(=O)NC4CCCC(C)C4C)CC3)cc2CC1C (stereo not shown) | -1.22%
CCOC(=O)c1cc(C#N)c(N2CCN(C(=O)c3ccccc3)CC2)nc1C(F)(F)F | -37.7%
COC(=O)C1=C(C)N(C)C(C)=C(C(=O)OC)C1c1ccncc1 | -1.51%
CCOc1ccc(N(Cc2cc3cc(C)ccc3[nH]c2=O)C(=O)COC)cc1 | 9.25%
COc1ccccc1N1CCN(C(=O)c2cccc(N3C(=O)NC4CC3(C)Oc3c(OC)cccc34)c2)CC1 (stereo not shown) | 7.1%
CCOC(=O)N1CCC(n2c(SCC(=O)Nc3ccccc3OC)nc3ccccc3c2=O)CC1 | -66.4%
C(#CCN1CCOCC1)COCCCOC(c1ccccc1)c1ccccc1 | -4.82%
Cc1ccnc(OC(C(=O)O)C(OCc2ccccc2)(c2ccccc2)c2ccc(C(F)(F)F)cc2)n1 (stereo not shown) | 26.4%
CCNC(=S)Nc1ccc(Cc2nc3ccccc3[nH]2)cc1 | 9.19%
N=c1c2ccccc2nnn1-c1ccc(C(F)(F)F)cc1 | 11.8%
COc1ccc(CCNC(=O)c2cc(-c3cc(C)c(C)cc3O)n[nH]2)cc1OC | -4.54%
O=C(NCCO)c1ccc2nc(-c3ccco3)c(-c3ccco3)nc2c1 | 7.6%
Cc1ccc(NC(=O)c2ccccc2)cc1C | 15.5%
COc1cc(/C=C/C(=O)OCc2c(C)noc2C)ccc1OC(F)F | -10.7%
CCCN(C(=O)Cn1ncc2c(=O)oc3ccccc3c21)c1cccc(C)c1 | -54.3%
Cc1oc(-c2ccccc2F)nc1CS(=O)CC(=O)NCc1ccc(F)cc1 (stereo not shown) | -12.6%
